Test results: PubChem BioAssay AID624296 (National Center for Advancing Translational Sciences (NCATS), 2012)
“And” between values parts separate entries of the source, which are not always exact repeats. Equal values may be shown once. The campaign covered roughly 350,000 compounds. About 9,900 (2.8%) were called active. Inconclusive means that the source gave no clear call. Such entries were picked first, then a sample of the others. Calls follow the shape of the dose curve; as a rule, active = well fitted activation curve with a large enough effect; inconclusive = small, poorly fitted or top-dose-only effect; inactive = no such curve, though single readings can be large or run the other way. Where the call is inconclusive, the potency comes from a doubtful curve fit.

assay: A quantitative high throughput screen for small molecules that induce DNA re-replication in MCF 10a normal breast cells.; also: nearly all actives have a fitted effect of over 50% in size; settings: MCF 10A DNA re-replication, Hoechst nuclear intensity, 48 h; series mostly up to 46.1 µM
Potency is read from the fitted curve at half-maximal effect; tags tell the direction and shape of the fitted curve.

Row | SMILES | Potency
1 | COc1ccc(NC(=O)CN(c2ccccc2F)S(=O)(=O)c2ccc(C)cc2)cc1 | inconclusive: 0.731 µM [activator, partial curve, poor fit]
2 | CC[C@]12c3[nH]c4ccc(OC)cc4c3CCN1C(=O)C(CC(=O)NCCCOC)C[C@@H]2C(=O)N1CCN(C(=O)C2CC2)CC1 (some centres not stated) | inconclusive: 29.1 µM [activator, single point]
3 | CC(=C/c1ccc(C(C)C)cc1)/C=N/NC(=O)CSc1ccccn1 | inconclusive: 25.9 µM [activator, single point]
4 | CCOc1ccc(C(=O)Nc2ccc(NC(=O)c3ccco3)c(Cl)c2)cc1Cl | inconclusive: 6.51 µM [activator, full curve]
5 | N#Cc1ccccc1S(=O)(=O)N1CCC(C(=O)NCc2ccccc2CN2CCCC2)CC1 | inactive
6 | CCOc1ccc(-n2c(SCc3ccc([N+](=O)[O-])cc3)nnc2-c2ccccc2)cc1 | inconclusive: 20.6 µM [activator, single point]
7 | Cc1cc(C)cc(OCC(=O)N/N=C/c2ccc([N+](=O)[O-])o2)c1 | inconclusive: 32.6 µM [activator, partial curve, poor fit]
8 | CCCCn1c(N)c(N(CC(C)C)C(=O)c2oc3ccc(OCC)cc3c2C)c(=O)[nH]c1=O | inconclusive: 0.0046 µM [activator, full curve, poor fit]
9 | N#Cc1ccc(NC(=O)Nc2ccc(Oc3ccc(NC(=O)Nc4ccc(C#N)cc4)cc3)cc2)cc1 | inconclusive: 10.3 µM [activator, partial curve, poor fit]
10 | COc1ccc(-c2cc(=O)c3c(OC)c(OC)c(OC)c(OC)c3o2)cc1OC | inactive and inconclusive: 14.6 µM [activator, single point]
11 | COc1cc(C(=O)NC2CCN(Cc3nnnn3Cc3ccc(F)cc3)CC2)cc(OC)c1OC | inconclusive: 6.51 µM [activator, partial curve, poor fit]
12 | CCOC(=O)C1CCCN(S(=O)(=O)CCNC(=O)c2cccc(OC)c2)C1 (configuration not stated) | inconclusive: 0.0073 µM [activator, full curve, poor fit]
13 | COc1cc2c(C(=O)N3CCOCC3)c(CSc3ccccc3)n(C)c2cc1Br | inconclusive: 14.6 µM [activator, partial curve, poor fit]
14 | CC(C)Cc1ccc(CN2CCCC(NC(=O)c3cccc(-n4cnnc4)c3)C2)cc1 (configuration not stated) | inconclusive: 6.51 µM [activator, partial curve]
15 | CC(=O)Nc1ccc2sccc2c1 | inconclusive: 20.6 µM [activator, partial curve, poor fit]
16 | COc1ccccc1CCC(=O)N1CCN(S(=O)(=O)c2cccc(F)c2)CC1 | inactive
17 | N#Cc1ccc(COC(=O)c2ccc3c(c2)OCO3)cc1 | inconclusive: 6.51 µM [activator, single point]
18 | O=C(CSc1nc2ccccc2c(=O)n1CCCN1CCOCC1)NC12CC3CC(CC(C3)C1)C2 | inconclusive: 13 µM [activator, partial curve, poor fit]
19 | CCc1ccc(OCC(=O)NCc2ccco2)c(Br)c1 | inconclusive: 29.1 µM [activator, single point]
20 | CCC(C)Nc1nc(-c2ccc3c(c2)NC(=O)CO3)cs1 (configuration not stated) | inactive
21 | O=C(Nc1ccccc1)N1CCN(Cc2ccc(Cl)cc2)CC1 | inactive

Row | SMILES | Potency
22 | CCCc1cc(=O)oc2c(C)c(OCC(=O)N3CCC(C(=O)O)(c4ccccc4)CC3)ccc12 | inconclusive: 0.184 µM [activator, full curve, poor fit]
23 | O=C1NC(=O)C(=Cc2ccc(Cl)c(Cl)c2)S1 | inconclusive: 20.6 µM [activator, single point]
24 | COc1cccc(CN(CC(=O)NCc2ccccc2)C(=O)c2csnn2)c1 | inactive
25 | CCOc1cc2[nH]c(=S)n(Cc3ccc(C)o3)c(=O)c2cc1OCC | inconclusive: 29.1 µM [activator, single point]
26 | CC(C)C(=O)Nc1ccc2c(c1)nc(CCN1CCN(c3ccccn3)CC1)n2C | inactive
27 | Cc1ccccc1CN1C[C@@H]2C[C@@H](c3cnc(N4CCOCC4)s3)N3CCC[C@@]23C1=O | inconclusive: 23.1 µM [activator, single point]
28 | CC(Nc1nc(Nc2ccc(F)cc2)nc(SCC(N)=O)n1)c1ccccc1 (configuration not stated) | inconclusive: 3.66 µM [activator, partial curve, poor fit]
29 | CSCC[C@H](NC(=O)OC(C)(C)C)C(=O)N1CCC(C(=O)N[C@@H](C)C(=O)O)CC1 | inactive
30 | CCCCNc1c(-c2ccc(-c3ccc(C(C)=O)cc3)c(OC)c2)nc2cnccn12 | active: 20.6 µM
31 | O=C(Cc1c(F)cccc1Cl)OCC(=O)N1CCN(c2ccccc2)CC1 | inactive
32 | O=CN(Cc1nc2ccccc2[nH]1)c1ccc(C(=O)O)cc1 | inactive
33 | Cc1ccnc(NS(=O)(=O)c2ccccc2)n1 | inconclusive: 18.4 µM [activator, single point]
34 | Cc1ccc(-c2cn(S(=O)(=O)c3ccc(C)cc3)nc2N)cc1 | inconclusive: 2.91 µM [activator, full curve, poor fit]
35 | CC(C)Cc1nnc(NC(=O)CCS(=O)(=O)c2ccc(Cl)cc2)s1 | inconclusive: 23.1 µM [activator, single point]
36 | O=C(CSc1ncccc1C(=O)O)c1ccc2ccccc2c1 | inactive
37 | COc1cc2cc(C(c3nnnn3C3CCCC3)N3CCc4ccccc43)c(=O)[nH]c2cc1OC (configuration not stated) | inconclusive: 29.1 µM [activator, single point]
38 | CC(C)c1cc(=O)oc2c3c4c(cc12)CCCN4CCC3 | inconclusive: 2.59 µM [activator, full curve, poor fit]
39 | CC(CCc1ccccc1)NC(=O)CSc1nccc(=O)[nH]1 (configuration not stated) | inactive
40 | CCOc1cc(/C=N/Nc2nnc(C)n2N)ccc1OC(C)=O | active: 18.4 µM
41 | O=C(NCc1ccc2c(c1)OCO2)C1CCN(c2ccc(S(=O)(=O)N3CCCC3)cc2)CC1 | inactive
42 | COc1ccc2c(c1)C(c1cccs1)=NNC(c1ccncc1)=N2 | inactive
